# Data taken from the supplement of paper PMC4604168 (melanoma cell lines).
# Some of the results follow. Many values rest on one well or one pass, so single values are uncertain.
# How the values were obtained:
# Test in all cases: cell count relative to DMSO control; melanoma cells; higher = more viable cells
# Settings in all cases: library dose: low library concentration; 72 h
# COLO792 = test system: COLO792
# COLO800 = test system: COLO800
# COLO829 = test system: COLO829
# G361 = test system: G361
# IPC-298 = test system: IPC-298
# IST-MEL1 = test system: IST-MEL1
# LB2518-MEL = test system: LB2518-MEL
# LOXIMVI = test system: LOXIMVI
# MEL-HO = test system: MEL-HO
# 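Further: cell number obtained by counting DAPI-stained nuclei in high-throughput microscope images with image analysis software, screen run in 1,536-well plates.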
SMILES,cell count (COLO792),cell count (COLO800),cell count (COLO829),cell count (G361),cell count (IPC-298),cell count (IST-MEL1),cell count (LB2518-MEL),cell count (LOXIMVI),cell count (MEL-HO)
"Cc1cc(Nc2cc(N3CCN(C)CC3)nc(Sc3ccc(NC(=O)C4CC4)cc3)n2)n[nH]1 [Tozasertib] + N#Cc1c(O)c2c(-c3ccc(-c4ccccc4O)cc3)csc2[nH]c1=O [A769662] (first compound 0.006 µM, partner dose 2 µM)",98.9%,75.7%,97.2%,89.9%,104%,101%,87.2%,82.3%,98.6%
"Cc1cc(Nc2cc(N3CCN(C)CC3)nc(Sc3ccc(NC(=O)C4CC4)cc3)n2)n[nH]1 [Tozasertib] + C[C@@H]1CCN(C(=O)CC#N)C[C@@H]1N(C)c1ncnc2[nH]ccc12 [CP690550] (first compound 0.006 µM, partner dose 1 µM)",89.5%,127%,86.4%,96.3%,96.2%,104%,103%,94.6%,89.1%
"Cc1cc(Nc2cc(N3CCN(C)CC3)nc(Sc3ccc(NC(=O)C4CC4)cc3)n2)n[nH]1 [Tozasertib] + Cc1cc(N2CCOCC2)cc2[nH]c(-c3c(NC[C@@H](O)c4cccc(Cl)c4)cc[nH]c3=O)nc12 [BMS536924] (first compound 0.006 µM, partner dose 0.2 µM)",83%,53.3%,105%,89.8%,102%,96.8%,–,85.6%,85.1%
"CC[C@]1(O)C[C@H]2CN(CCc3c([nH]c4ccccc34)[C@@](C(=O)OC)(c3cc4c(cc3OC)N(C=O)[C@H]3[C@@](O)(C(=O)OC)[C@H](OC(C)=O)[C@]5(CC)C=CCN6CC[C@]43[C@@H]65)C2)C1 [vincristine] + N#Cc1c(O)c2c(-c3ccc(-c4ccccc4O)cc3)csc2[nH]c1=O [A769662] (first compound 0.0001 µM, partner dose 2 µM)",103%,108%,74.3%,103%,102%,99%,82.8%,145%,83.7%
"N#CC[C@H](C1CCCC1)n1cc(-c2ncnc3[nH]ccc23)cn1 [ruxolitinib] + CO[C@@H]1[C@H](N(C)C(=O)c2ccccc2)C[C@H]2O[C@]1(C)n1c3ccccc3c3c4c(c5c6ccccc6n2c5c31)C(=O)NC4 [Midostaurin] (first compound 1 µM, partner dose 0.08 µM)",89.6%,149%,83.1%,73.1%,102%,93%,104%,73.5%,91.7%
"Cc1cc(Nc2cc(N3CCN(C)CC3)nc(Sc3ccc(NC(=O)C4CC4)cc3)n2)n[nH]1 [Tozasertib] + CCc1ccc(CCOc2ccc(CC3SC(=O)NC3=O)cc2)nc1 [pioglitazone] (first compound 0.006 µM, partner dose 2 µM)",109%,97.1%,85.4%,87.5%,93.5%,102%,104%,90.8%,80.1%
"Cc1cc(Nc2cc(N3CCN(C)CC3)nc(Sc3ccc(NC(=O)C4CC4)cc3)n2)n[nH]1 [Tozasertib] + Cn1cncc1[C@@](N)(c1ccc(Cl)cc1)c1ccc2c(c1)c(-c1cccc(Cl)c1)cc(=O)n2C [tipifarnib] (first compound 0.006 µM, partner dose 0.01 µM)",111%,101%,92.4%,101%,106%,98.2%,86.1%,97.5%,102%
"CC[C@]1(O)C[C@H]2CN(CCc3c([nH]c4ccccc34)[C@@](C(=O)OC)(c3cc4c(cc3OC)N(C=O)[C@H]3[C@@](O)(C(=O)OC)[C@H](OC(C)=O)[C@]5(CC)C=CCN6CC[C@]43[C@@H]65)C2)C1 [vincristine] + O=C(Nc1ccccc1)c1cc([N+](=O)[O-])ccc1Cl [GW9662] (first compound 0.0001 µM, partner dose 2 µM)",118%,80%,80.3%,106%,99.4%,101%,84.3%,84.3%,99.2%
"N#CC[C@H](C1CCCC1)n1cc(-c2ncnc3[nH]ccc23)cn1 [ruxolitinib] + NCC(=O)Nc1ccc(-n2nc(C(F)(F)F)cc2-c2ccc3c(ccc4ccccc43)c2)cc1 [OSU03012] (first compound 1 µM, partner dose 1 µM)",87.3%,115%,93.6%,105%,75.2%,86.6%,103%,–,93.8%
"CC[C@]1(O)C[C@H]2CN(CCc3c([nH]c4ccccc34)[C@@](C(=O)OC)(c3cc4c(cc3OC)N(C=O)[C@H]3[C@@](O)(C(=O)OC)[C@H](OC(C)=O)[C@]5(CC)C=CCN6CC[C@]43[C@@H]65)C2)C1 [vincristine] + O=S(=O)(c1ccccc1)N(CC(F)(F)F)c1ccc(C(O)(C(F)(F)F)C(F)(F)F)cc1 [T0901317] (first compound 0.0001 µM, partner dose 1.4 µM)",106%,74.1%,63.6%,90%,88%,98.2%,83.3%,102%,104%
